# Measurements published in the supplement of paper PMC8183993.
# Where a name gives a salt, the structure may show the parent alone. ± gives the standard deviation of the averaged measurements. The full ranking holds about 3,100 compounds; the median of “mean cytoplasmic OPP incorporation (global translation) relative to DMSO” is about 100, and the lowest 2% start at about 56. This is one part of the list.
# System: U2OS
# Test: mean cytoplasmic OPP incorporation (global translation) relative to DMSO (% of DMSO); higher = more protein synthesis
# Conditions: 10 µM; 24 h
# Experimental: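 Primary image-based screen in U2OS cells: compounds at 10 uM for 24 h, then a 1 h o-propargyl-puromycin (OPP) pulse, click labelling, and high-throughput microscopy. Mean cytoplasmic OPP intensity and nuclei count were normalised to DMSO wells within each plate (DMSO = 100) and averaged over triplicate plates.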
row,SMILES,mean cytoplasmic OPP incorporation
1,CN1CCCC(CC2c3ccccc3Sc3ccccc32)C1 (centres undefined) [Metixene hydrochloride],104
2,COc1ccccc1N1CCN(CC(O)COc2cccc3ccccc23)CC1 (centres undefined) [Naftopidil dihydrochloride],116
3,COc1ccccc1N1CCN(CC(O)COc2cccc3ccccc23)CC1 (centres undefined) [Naftopidil hydrochloride],112
4,"CC(C)(C)C(=O)OCOP(=O)(COCCn1cnc2c(N)ncnc21)OCOC(=O)C(C)(C)C [Adefovir Dipivoxil (Preveon, Hepsera)]",111
5,Cc1ccc(NC(=O)C(C)C)cc1C1CCN(Cc2ccc(Oc3ccc(F)c(F)c3)cc2)CC1,108
6,COc1cc(OC)c(C(=O)CCCN2CCCC2)c(OC)c1 [Buflomedil hydrochloride],97.3
7,N#CC(c1ccc(Cl)cc1)c1c(Cl)cc(-n2ncc(=O)[nH]c2=O)cc1Cl (centres undefined) [Diclazuril],92.5
8,O=c1ccc2ccc(O)c(O)c2o1 [Daphnetin],103
9,Nc1c(Br)cc(Br)cc1CN[C@H]1CC[C@H](O)CC1 [Ambroxol hydrochloride],97 ± 9.2
10,Nc1c(Br)cc(Br)cc1CN[C@H]1CC[C@H](O)CC1 [Ambroxol],105
11,"Cn1ccnc1S [Methimazole (Tapazole, Northyx)]",98.3
12,Cn1ccnc1S [Methimazole],97.7
13,CC1Nc2ccc(Cl)cc2S(=O)(=O)N1 (centres undefined),101
14,Nc1ccc(-c2nc3ccc(-c4nc5ccc(N)cc5[nH]4)cc3[nH]2)cc1,96.5
15,C=CC(=O)Nc1cccc(Nc2nc(Nc3ccc(N4CCN(C(C)=O)CC4)cc3OC)ncc2C(F)(F)F)c1,95.1
16,CS(=O)(=O)CCNCc1ccc(-c2ccc3ncnc(Nc4ccc(OCc5cccc(F)c5)c(Cl)c4)c3c2)o1 [Lapatinib Ditosylate (Tykerb)],118
17,COC(=O)c1sccc1S(=O)(=O)Nc1ccc(Nc2ccccc2)cc1OC,91.1
18,CC(C)(Sc1cc(C(C)(C)C)c(O)c(C(C)(C)C)c1)Sc1cc(C(C)(C)C)c(O)c(C(C)(C)C)c1 [Probucol],104.4 ± 1
19,O=c1cc(N2CCNCC2)oc2c(-c3ccccc3)cccc12,102
20,COc1cc2ncc(-c3ccccc3)nc2cc1OC [Tyrphostin AG 1296 (AG 1296)],92.8
21,COc1cc(Nc2ncc(F)c(Nc3ccc4c(n3)NC(=O)C(C)(C)O4)n2)cc(OC)c1OC [R406(free base)],88.5
22,COc1cc(Nc2ncc(F)c(Nc3ccc4c(n3)NC(=O)C(C)(C)O4)n2)cc(OC)c1OC,86.6
23,CC(C)(Oc1ccc(Cl)cc1)C(=O)O [Clofibric acid],102 ± 4.6
24,CC(=O)[C@@]1(O)CC[C@H]2[C@@H]3CCC4=CC(=O)CCC4=C3[C@@H](c3ccc(N(C)C)cc3)C[C@@]21C [Ulipristal],112
25,COc1ccc(C(=O)Nc2sc3c(c2C(N)=O)CCCC3)cc1OC,98.4 ± 1.2
26,CN(C)CC/C=C1\c2ccccc2CSc2ccccc21 [Dosulepin hydrochloride],100
27,O=NO [Sodium Nitrite],97

row,SMILES,mean cytoplasmic OPP incorporation
1,CC(N)(Cc1ccc(O)c(O)c1)C(=O)O [L-(-)- _-Methyldopa],103
2,Cc1ccc(NC(=O)c2ccc(CN3CC[C@H](N(C)C)C3)c(C(F)(F)F)c2)cc1Nc1nccc(-c2cncnc2)n1 [Bafetinib (INNO-406)],118
3,CC(C)(S)[C@@H](N)C(=O)O [Penicillamine],109
4,COc1ccc(-c2ccc(=N)n(CCCC(=O)O)n2)cc1 [Gabazine bromide],107
5,COc1ccc(-c2ccc(=N)n(CCCC(=O)O)n2)cc1,98.6
6,CO[C@H]1C[C@H](O[C@H]2[C@H](C)[C@@H](O[C@@H]3O[C@H](C)C[C@H](N(C)C)[C@H]3OC(C)=O)[C@@H](C)C[C@@]3(CO3)C(=O)[C@H](C)[C@@H](OC(C)=O)[C@@H](C)[C@@H](C)OC(=O)[C@@H]2C)O[C@@H](C)[C@@H]1OC(C)=O [Troleandomycin],106
7,Cc1cc(C(=O)NNCc2ccccc2)no1 [Isocarboxazid],106
8,Cn1c(=O)c2c(ncn2CC(=O)O)n(C)c1=O [Acefylline],104
9,CS(=O)(=O)c1cccc(CNc2nc(Nc3ccc4c(c3)CCC(=O)N4)ncc2C(F)(F)F)c1,110 ± 24
10,CC1(C)CCC(CN2CCN(c3ccc(C(=O)NS(=O)(=O)c4ccc(NCC5CCOCC5)c([N+](=O)[O-])c4)c(Oc4cnc5[nH]ccc5c4)c3)CC2)=C(c2ccc(Cl)cc2)C1,117
11,CCCCCCCCCCC[C@@H](C[C@@H]1OC(=O)[C@H]1CCCCCC)OC(=O)[C@H](CC(C)C)NC=O [Orlistat],105
12,"CCCCCCCCCCC[C@@H](C[C@@H]1OC(=O)[C@H]1CCCCCC)OC(=O)[C@H](CC(C)C)NC=O [Orlistat (Alli, Xenical)]",103
13,CCN(CC)CCNc1ccc(CO)c2sc3ccccc3c(=O)c12 [Hycanthone],89.7
14,CNC(C)CCC=C(C)C (centres undefined) [Isometheptene mucate],107
15,O=C(COc1ccc(Cl)cc1)N1CCN(Cc2ccc3c(c2)OCO3)CC1 [Fipexide hydrochloride],97.9
16,CN(Cc1cnc2nc(N)nc(N)c2n1)c1ccc(C(=O)N[C@@H](CCC(=O)O)C(=O)O)cc1 [Methotrexate],94.3 ± 14
17,"CN(Cc1cnc2nc(N)nc(N)c2n1)c1ccc(C(=O)N[C@@H](CCC(=O)O)C(=O)O)cc1 (racemic) [Amethopterin (R,S)]",101
18,Nc1nc(NC2CC2)c2ncn([C@H]3C=C[C@@H](CO)C3)c2n1 [Abacavir Sulfate],94.4
19,COc1cc(C(C)=O)ccc1O [Apocynin (Acetovanillone)],105
20,CCCn1c(=O)[nH]c2nc(-c3ccc(S(=O)(=O)O)cc3)[nH]c2c1=O,99.9
21,CC(Cc1ccc(O)c(O)c1)(NN)C(=O)O [(S)-(-)-Carbidopa],101
22,CCCCCCCCCCCCCCCCOP(=O)([O-])OCC[N+](C)(C)C [Miltefosine (Hexadecylphosphocholine)],104
23,Cc1ccsc1/C=C/C1=NCCCN1C [Morantel tartrate],97.9
24,CN(C)c1ccc(O)c2c1C[C@H]1C[C@H]3[C@H](N(C)C)C(O)=C(C(N)=O)C(=O)[C@@]3(O)C(O)=C1C2=O [Minocycline hydrochloride],104
25,Cn1cccc1/C=C1\C(=O)NC(=O)c2ccccc21,89.4
26,COc1cc2c(CCNC(C)=O)c[nH]c2cc1Cl [6-Chloromelatonin],106
27,Cc1ccc(S(=O)(=O)NC(=O)NN2CCCCCC2)cc1 [Tolazamide],102 ± 6

row,SMILES,mean cytoplasmic OPP incorporation
1,C=CC(C)(C)c1cc(/C=C/C(=O)c2ccc(O)cc2)c(OC)cc1O [Licochalcone A],90.4
2,C[C@]12CC[C@@H]3c4ccc(OS(=O)(=O)O)cc4CC[C@H]3[C@@H]1CCC2=O [Estropipate],101
3,CCOC(=O)c1ccc(N)cc1 [Benzocaine],102
4,C[C@H]1[C@H](C)CC[C@]2(C(=O)O)CC[C@]3(C)C(=CC[C@@H]4[C@@]5(C)C[C@@H](O)[C@H](O)[C@@](C)(CO)[C@@H]5CC[C@]43C)[C@H]12 [Asiatic acid],99.67 ± 0.16
5,CCN(CC)CCOC(=O)C(c1ccccc1)c1ccccc1 [Adiphenine hydrochloride],105
6,OC(CCCN1CCCCC1)(c1ccccc1)c1ccccc1 [Diphenidol hydrochloride],92.9
7,CC1c2ccccc2CN1CC1=NCCN1 (centres undefined),99.8
8,CCCCCCCCCCCCc1ccc(S(=O)(=O)Nc2nncs2)cc1,101.8 ± 0.36
9,CN1CCN(c2c(F)cc3c(=O)c(C(=O)O)cn4c3c2OCN4C)CC1 [Marbofloxacin],101
10,COc1cc(-c2ccc(=O)[nH]n2)ccc1OC(F)F [Zardaverine],104 ± 6.6
11,Cc1ccc([N+](=O)[O-])cc1S(=O)(=O)N(C)/N=C/c1cnc2ccc(Br)cn12,44.3
12,CCCCCCCc1ccc(CCc2cccc(O)c2C(=O)O)cc1,75.5
13,c1ccc(COCCCc2c[nH]cn2)cc1 [Proxyfan Oxalate],97
14,CC[N+](CC)(CC)CC(=O)Nc1c(C)cccc1C [QX 314 chloride],103
15,CC[N+](CC)(CC)CC(=O)Nc1c(C)cccc1C [QX 314 bromide],97.1
16,CC[N+](CC)(CC)CC(=O)Nc1c(C)cccc1C [QX-314 bromide],91.7
17,CCCCNc1c(C(=O)OCC)c(C)nc2c1cnn2CC [Tracazolate hydrochloride],117 ± 7
18,CC(C)c1ccc(Cn2ccc3c4c(N)nc(NC5CC5)nc4ccc32)cc1,40.1
19,COc1cc(NC(C)CCCN)c2ncccc2c1 (centres undefined) [Primaquine diphosphate],36.1
20,CCCCC1(COC(=O)CCC(=O)O)C(=O)N(c2ccccc2)N(c2ccccc2)C1=O [Suxibuzone],94.7
21,CN(C)[C@@H]1C(O)=C(C(N)=O)C(=O)[C@@]2(O)C(O)=C3C(=O)c4c(O)cccc4[C@@](C)(O)[C@H]3[C@H](O)[C@@H]12 [Oxytetracycline dihydrate],106 ± 13
22,CN(C)[C@@H]1C(O)=C(C(N)=O)C(=O)[C@@]2(O)C(O)=C3C(=O)c4c(O)cccc4[C@@](C)(O)[C@H]3[C@H](O)[C@@H]12 [Oxytetracycline (Terramycin)],104
23,COc1cc(OC)c(/C=C/S(=O)(=O)Cc2ccc(OC)c(NCC(=O)O)c2)c(OC)c1,95.4 ± 6.3
24,OC(CN1CCN(c2cccc(Cl)c2)CC1)C(c1ccccc1)c1ccccc1 (centres undefined),98.8
25,COc1ccc(-c2ccc3c(N4CCOCC4)nc(N4C[C@@H](C)O[C@@H](C)C4)nc3n2)cc1CO,88.2
